Hit rate of the full screen: of about 310,000 compounds, about 2,200 (0.71%) showed an effect of 50% or more. The effect is printed as a negative number. The list shows a part of the results.
What follows are molecules tested against human ether-à-go-go-related gene (hERG) potassium channel (human, UniProt Q12809) (assay: primary screen, population patch clamp on CHO cells stably expressing hERG).
Chain of human ether-à-go-go-related gene (hERG) potassium channel (Q12809 whole entry, looked up): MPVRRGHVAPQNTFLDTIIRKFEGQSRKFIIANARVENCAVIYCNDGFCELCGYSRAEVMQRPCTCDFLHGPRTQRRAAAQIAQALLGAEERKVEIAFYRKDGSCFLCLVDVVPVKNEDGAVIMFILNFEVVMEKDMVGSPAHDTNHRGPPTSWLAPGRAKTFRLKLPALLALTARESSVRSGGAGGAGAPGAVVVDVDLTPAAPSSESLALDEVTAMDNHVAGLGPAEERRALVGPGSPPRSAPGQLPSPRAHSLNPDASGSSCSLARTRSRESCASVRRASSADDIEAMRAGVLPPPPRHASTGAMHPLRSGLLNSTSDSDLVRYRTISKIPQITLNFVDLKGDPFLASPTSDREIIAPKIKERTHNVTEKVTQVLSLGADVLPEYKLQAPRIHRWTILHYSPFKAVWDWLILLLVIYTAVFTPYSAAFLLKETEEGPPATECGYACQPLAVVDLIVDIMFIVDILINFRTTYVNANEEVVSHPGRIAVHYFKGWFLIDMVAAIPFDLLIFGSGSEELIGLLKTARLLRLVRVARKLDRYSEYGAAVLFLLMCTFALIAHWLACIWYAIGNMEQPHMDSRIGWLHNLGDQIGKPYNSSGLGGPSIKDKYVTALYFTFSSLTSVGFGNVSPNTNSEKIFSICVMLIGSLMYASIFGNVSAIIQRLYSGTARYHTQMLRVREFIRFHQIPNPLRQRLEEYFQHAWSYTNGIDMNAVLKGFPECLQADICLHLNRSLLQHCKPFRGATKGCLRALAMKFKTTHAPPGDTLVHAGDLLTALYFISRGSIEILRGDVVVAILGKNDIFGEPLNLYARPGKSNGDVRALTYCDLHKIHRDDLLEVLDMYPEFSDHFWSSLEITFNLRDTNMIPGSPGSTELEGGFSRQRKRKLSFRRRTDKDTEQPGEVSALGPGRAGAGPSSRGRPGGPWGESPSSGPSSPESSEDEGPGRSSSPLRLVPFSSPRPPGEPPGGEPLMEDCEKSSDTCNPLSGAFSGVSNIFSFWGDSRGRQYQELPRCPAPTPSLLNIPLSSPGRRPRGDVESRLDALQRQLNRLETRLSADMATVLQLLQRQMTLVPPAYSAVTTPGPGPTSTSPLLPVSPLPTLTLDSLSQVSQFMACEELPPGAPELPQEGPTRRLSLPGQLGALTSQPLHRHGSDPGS

Structure (SMILES)	hERG current change (%, negative = inhibition) at 1uM
CC/C(=N\N1CCCCCC1)c1c(O)n(-c2ccccc2C)c(=O)[nH]c1=O	14.1%
COc1cccc(CC(=O)N2CCN(Cc3cccc(Cl)c3)CC2)c1	3.24%
Cc1nc2ccc(Cl)cc2c(=O)n1-c1ccccc1Cl	14.6%
Cc1cccc2cc(/C=N/Nc3ccc(C(=O)O)cc3)c(Cl)nc12	5.76%
Cn1c(C(=O)NCc2cccs2)cc2c(=O)n(C)c3ccccc3c21	4.97%
COC(=O)c1ccccc1NC(=O)c1cc2ncc(Br)cn2n1	7.91%
CCCCC(=Nc1ccccc1OC)C1=C(O)CC(c2ccccc2)CC1=O (stereo not shown)	15.3%
COc1ccc(C(=O)NCCNc2ccccc2[N+](=O)[O-])cc1	10.9%
COc1ccccc1Nc1nc(N)nc(CSC(=S)N2CCCCC2)n1	8.95%
Cc1ccc(Nc2nc3ccccc3[nH]2)nc1	6.46%
COc1ccc(NS(=O)(=O)c2ccc3c(c2)NC(=O)CCS3)cc1Cl	8.04%
CCOC(=O)N1CCC(NS(=O)(=O)c2ccc3c(c2)CCN3C(C)=O)CC1	0.963%
CN(C)C(Cc1ccc(Cl)cc1)C(=O)c1ccccc1 (stereo not shown)	12.1%
CC(C)Cn1c(=O)c2c(nc3n2CC(C)CN3Cc2ccccc2)n(C)c1=O (stereo not shown)	-16.7%
COc1ccc(-c2c(-c3cc(OC)cc(OC)c3)n(C)c3ccc(-c4ccc(S(N)(=O)=O)cc4)cc23)cc1	17%
Cn1c(O)c(N=NC(=O)c2cc(-c3cccs3)nc3ccccc23)c2ccccc21	16.6%
CCc1ccc(NC(=O)CSc2nnc(Cn3c(=O)sc4ccccc43)n2C)cc1	2.68%
O=C(NCCN1CCCCC1)c1ccc(Cl)nc1Cl	12%
CC(C)=CCCC1(C)C=Cc2c(c(C)cc3c2[nH]c2cc(O)ccc23)O1 (stereo not shown)	15.7%
O=Cc1cn(-c2ccccc2)nc1-c1ccccn1	8.46%
O=C(NC(=S)NNC(=O)c1ccccc1O)c1cccc([N+](=O)[O-])c1	22.3%
Cc1ccccc1-n1nc2c(c1NC(=O)c1ccc(Br)o1)CSC2	0.781%

Structure (SMILES)	hERG current change (%, negative = inhibition) at 1uM
O=C(Nc1cccc(F)c1)C1CCN(c2nnnn2-c2ccccc2)CC1	9.34%
Fc1ccc(Nc2c3c(nc4ccccc24)CCC3)cc1	-12.7%
CC(C)c1cccc(C(C)C)c1NC(=O)c1ccccc1	17.1%
C=C(C)CSc1nnc(-c2cc(OC)c(OC)c(OC)c2)n1N	17.1%
CC(Oc1ccccc1C(N)=O)C(=O)Nc1ccc(S(=O)(=O)N2CCCC2)cc1 (stereo not shown)	-0.652%
Cc1cc(C)cc(NC(=O)CCN2C(=O)c3ccccc3C2=O)c1	14.2%
Cc1ccc(/C(N)=N/OC(=O)c2ccc(C)cc2Cl)cc1	12.1%
CC1(C)CC(=O)C=C(C(=O)N2CCCC(C(=O)c3cccc(C(F)(F)F)c3)C2)O1 (stereo not shown)	1.78%
CCN1CCC(=NNC(=O)CC23CC4CC(CC(C4)C2)C3)CC1	11.5%
CCC(C)(C)NC(=O)Cn1c(-c2ccccc2)cc(C(C)=O)c1C	13.6%
Cc1onc(-c2c(Cl)cccc2Cl)c1C(=O)N1CCOCC1	12.7%
O=C(/C=C/c1cccnc1)c1cc(F)ccc1O	8.59%
O=C(COC(=O)CCc1nc2ccccc2c(=O)[nH]1)Nc1ccc(OC(F)(F)F)cc1	9.24%
O=S(=O)(Nc1cccc(S(=O)(=O)N2CCOCC2)c1)c1cccs1	21.5%
CCc1ccc2nc(N(CCCN(C)C)C(=O)c3ccc(C(=O)c4ccccc4)cc3)sc2c1.Cl	5.9%
COc1ccccc1CNC(=O)CN1C(=O)N(C)C2(CCCCC2)C1=O	13.8%
COc1ccc(/C=N/n2cncn2)cc1Cn1nc(C)c([N+](=O)[O-])c1C	-8.84%
COc1ccc(S(=O)(=O)N2CCCOC2CNC(=O)C(=O)NCCc2ccco2)cc1OC (stereo not shown)	0.943%
COc1ccc(-c2cn(Cc3ccc(C(=O)c4ccccc4)cc3)nn2)cc1	9.65%
CC(=O)Nc1ccc(S(=O)(=O)NNC(=O)C(=O)NNc2ccccn2)cc1	6.91%
CCOC(=O)CN(C(=O)CSc1nnc(C)n1-c1ccccc1)c1ccccc1	10.8%
COc1ccc(-n2c(C)cc(C(=O)CSc3nnc(-c4ccoc4C)n3C)c2C)cc1	6.26%

Structure (SMILES)	hERG current change (%, negative = inhibition) at 1uM
O=C(CCCN1C(=O)c2ccccc2C1=O)Nc1c(C(=O)C2CC2)oc2ccccc12	9.19%
CCN(CC)C(=O)CN(c1cccc(Br)c1)S(C)(=O)=O	7.56%
COC(=O)c1cc(CSc2nc3ccccc3[nH]2)oc1C	14.1%
Cc1occc1C(=O)NCCc1ccc(Cl)cc1	5.04%
CC(OC(=O)c1cccnc1Cl)C(=O)Nc1ccc2c(c1)OCCO2 (stereo not shown)	0.0837%
COC(=O)c1ccc(C2/C(=C(/O)c3ccc(OC)cc3)C(=O)C(=O)N2CC2CCCO2)cc1 (stereo not shown)	7.22%
COc1cccc(COC(=O)c2c(C)nn(-c3ccccc3)c2Cl)c1OC	6.79%
O=C(c1ccco1)N1CCN(C(=O)C2Cc3ccccc3CN2S(=O)(=O)c2ccc(F)cc2)CC1 (stereo not shown)	-21.4%
CC1CCCN(CC(O)COc2ccc(Cl)cc2)C1.Cl (stereo not shown)	-32.2%
Cc1cc(C)c(C)c(S(=O)(=O)N2CCC(C(=O)NCCCN3CCCC3=O)CC2)c1C	-42.5%
CCCCOC(=O)Nc1ccc(S(=O)(=O)Nc2onc(C)c2C)cc1	14.1%
Cn1c(=O)[nH]c(=O)c2[nH]c(CN3CCN(Cc4ccccc4)CC3)nc21	8.43%
O=C(O/N=C(/c1ccccc1)c1ccncc1)c1cccc(F)c1	19.1%
CCn1cc(C(=O)NCCCOC(C)C)c(=O)c2cc(S(=O)(=O)N3CCCC3)ccc21	6.17%
COc1ccc(N2CCN(C(=O)C3CCCN(S(=O)(=O)c4c(C)noc4C)C3)CC2)cc1 (stereo not shown)	-6.44%
CCS(=O)(=O)N1CCN(Cc2ccncc2)CC1.O=C(O)C(=O)O	16.4%
CCOC(=O)C1(Cc2cccc(F)c2)CCN(Cc2c(C)nn(CC)c2C)CC1	-14.3%
Cc1cc(-c2cccs2)n[nH]1	11.7%
Cc1cc(C(=O)NN=C2CCCC2)c2ccccc2n1	9.77%
CCOc1ccc(/C=N/NC(=O)c2nnn(-c3nonc3N)c2COc2ccc(F)cc2)cc1	14.4%
CC(=O)C1=C(O)C(=O)N(c2cccc(C(=O)O)c2)C1c1ccc(F)cc1 (stereo not shown)	13.8%
CN(C)/N=C/c1ccc(OS(=O)(=O)c2ccccc2)cc1	14.1%

Structure (SMILES)	hERG current change (%, negative = inhibition) at 1uM
COC(=O)c1cccc(NC(=O)CSc2nnc(COc3ccc(C#N)cc3)n2-c2ccccc2)c1	-17.5%
O=C(Cc1ccsc1)Nc1ccccc1F	12.1%
O=c1[nH]c(CN2CCN(S(=O)(=O)c3cccs3)CC2)nc2c(Br)cc(Br)cc12	0.89%
Cc1ccnc(NS(=O)(=O)c2ccc(NC(=O)Cc3c(F)cccc3Cl)cc2)n1	9.04%
Cc1nc2ccccc2n1CC(=O)NC(C)C1CC2CCC1C2 (stereo not shown)	12.4%
N#C/C(=C\c1ccc(-c2cccc(C(F)(F)F)c2)o1)C(=O)Nn1cnnc1	6.23%
Cc1ccc(/C=C2\C(=N)N3N=C(CC(=O)N4CCCCC4)SC3=NC2=O)cc1	13.6%
CCN(CC(N)=O)S(=O)(=O)c1ccc(Br)cc1	8.54%
Cc1cccc(NC(=O)COC(=O)c2cccc3c2C(=O)c2ccccc2C3=O)c1C	-0.0605%
CC(C)(C)NC(=O)NC(=O)COC(=O)C1CC(=O)N(Cc2ccccc2)C1 (stereo not shown)	13.2%
CC(=O)OCC1=C(C(=O)O)N2C(=O)C(NC(=O)C(C)Cn3nc(C)c(Cl)c3C)C2SC1 (stereo not shown)	4.29%
C=CCn1c(SCC(=O)C(C)(C)C)nnc1-c1ccccn1	6.06%
CN(C)c1cc[nH]c(=O)c1C#N	11.8%
CCNc1ccc(S(=O)(=O)N(C)C)cc1NCC(=O)Nc1ccccc1F	-10%
C=CCOc1ccn(C)c(=O)n1	2.71%
O=C(NCc1ccco1)c1ccc([N+](=O)[O-])o1	15.5%
COc1ccc(-c2nc(C#N)c(NC(C)c3ccccc3)o2)cc1OC (stereo not shown)	4.38%
O=C(O)c1cccc([N+](=O)[O-])c1C(=O)Nc1cccc2ccccc12	17%
O=C(NCCSCc1ccco1)c1ccc(=O)[nH]c1	17.9%
O=C(CCN1C(=O)[C@@H]2Cc3ccccc3CN2C1=O)NCCc1ccccc1	4.01%
CN(C)S(=O)(=O)N1CCC(Oc2cccc(C(=O)NC3CCCCCC3)c2)CC1	4.06%
O=CN1CCN(CC(O)Cn2c3ccccc3c3ccccc32)CC1 (stereo not shown)	-2.21%
